Data: PubChem BioAssay AID504333 (National Center for Advancing Translational Sciences (NCATS), 2011)
Among all 360,000 compounds or so, about 16,000 (4.4%) were called active. Inconclusive results, whose numbers are uncertain, are shown with a selection of clear calls. Calls come from the whole dose curve; as a rule, active = well fitted inhibition curve with a large enough effect; inconclusive = small, poorly fitted or top-dose-only effect; inactive = no such curve, though single readings can be large or run the other way. Potencies beside an inconclusive call are fits to weak or partial responses and may not hold up.

biological target: Bromodomain adjacent to zinc finger domain protein 2B (Homo sapiens) (UniProt Q9UIF8); assay: qHTS Assay for Inhibitors of BAZ2B; settings: AlphaScreen BAZ2B-H3K14Ac peptide displacement; series mostly up to 114 µM; note: nearly all actives have a fitted effect of over 60% in size
Summary of the method: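 Compounds, titrated to a top concentration of 110 uM, were incubated 30 min at room temperature with preformed BAZ2B/acetyl-K14 H3 peptide complex (50 nM each). Proximity signal was measured by AlphaScreen after 20 min with beads.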
Potency is the fitted concentration of half-maximal effect; tags give direction and shape of the fitted curve.

Sequence of UniProt Q9UIF8 (Q9UIF8 whole entry, looked up, the tested form may be a part): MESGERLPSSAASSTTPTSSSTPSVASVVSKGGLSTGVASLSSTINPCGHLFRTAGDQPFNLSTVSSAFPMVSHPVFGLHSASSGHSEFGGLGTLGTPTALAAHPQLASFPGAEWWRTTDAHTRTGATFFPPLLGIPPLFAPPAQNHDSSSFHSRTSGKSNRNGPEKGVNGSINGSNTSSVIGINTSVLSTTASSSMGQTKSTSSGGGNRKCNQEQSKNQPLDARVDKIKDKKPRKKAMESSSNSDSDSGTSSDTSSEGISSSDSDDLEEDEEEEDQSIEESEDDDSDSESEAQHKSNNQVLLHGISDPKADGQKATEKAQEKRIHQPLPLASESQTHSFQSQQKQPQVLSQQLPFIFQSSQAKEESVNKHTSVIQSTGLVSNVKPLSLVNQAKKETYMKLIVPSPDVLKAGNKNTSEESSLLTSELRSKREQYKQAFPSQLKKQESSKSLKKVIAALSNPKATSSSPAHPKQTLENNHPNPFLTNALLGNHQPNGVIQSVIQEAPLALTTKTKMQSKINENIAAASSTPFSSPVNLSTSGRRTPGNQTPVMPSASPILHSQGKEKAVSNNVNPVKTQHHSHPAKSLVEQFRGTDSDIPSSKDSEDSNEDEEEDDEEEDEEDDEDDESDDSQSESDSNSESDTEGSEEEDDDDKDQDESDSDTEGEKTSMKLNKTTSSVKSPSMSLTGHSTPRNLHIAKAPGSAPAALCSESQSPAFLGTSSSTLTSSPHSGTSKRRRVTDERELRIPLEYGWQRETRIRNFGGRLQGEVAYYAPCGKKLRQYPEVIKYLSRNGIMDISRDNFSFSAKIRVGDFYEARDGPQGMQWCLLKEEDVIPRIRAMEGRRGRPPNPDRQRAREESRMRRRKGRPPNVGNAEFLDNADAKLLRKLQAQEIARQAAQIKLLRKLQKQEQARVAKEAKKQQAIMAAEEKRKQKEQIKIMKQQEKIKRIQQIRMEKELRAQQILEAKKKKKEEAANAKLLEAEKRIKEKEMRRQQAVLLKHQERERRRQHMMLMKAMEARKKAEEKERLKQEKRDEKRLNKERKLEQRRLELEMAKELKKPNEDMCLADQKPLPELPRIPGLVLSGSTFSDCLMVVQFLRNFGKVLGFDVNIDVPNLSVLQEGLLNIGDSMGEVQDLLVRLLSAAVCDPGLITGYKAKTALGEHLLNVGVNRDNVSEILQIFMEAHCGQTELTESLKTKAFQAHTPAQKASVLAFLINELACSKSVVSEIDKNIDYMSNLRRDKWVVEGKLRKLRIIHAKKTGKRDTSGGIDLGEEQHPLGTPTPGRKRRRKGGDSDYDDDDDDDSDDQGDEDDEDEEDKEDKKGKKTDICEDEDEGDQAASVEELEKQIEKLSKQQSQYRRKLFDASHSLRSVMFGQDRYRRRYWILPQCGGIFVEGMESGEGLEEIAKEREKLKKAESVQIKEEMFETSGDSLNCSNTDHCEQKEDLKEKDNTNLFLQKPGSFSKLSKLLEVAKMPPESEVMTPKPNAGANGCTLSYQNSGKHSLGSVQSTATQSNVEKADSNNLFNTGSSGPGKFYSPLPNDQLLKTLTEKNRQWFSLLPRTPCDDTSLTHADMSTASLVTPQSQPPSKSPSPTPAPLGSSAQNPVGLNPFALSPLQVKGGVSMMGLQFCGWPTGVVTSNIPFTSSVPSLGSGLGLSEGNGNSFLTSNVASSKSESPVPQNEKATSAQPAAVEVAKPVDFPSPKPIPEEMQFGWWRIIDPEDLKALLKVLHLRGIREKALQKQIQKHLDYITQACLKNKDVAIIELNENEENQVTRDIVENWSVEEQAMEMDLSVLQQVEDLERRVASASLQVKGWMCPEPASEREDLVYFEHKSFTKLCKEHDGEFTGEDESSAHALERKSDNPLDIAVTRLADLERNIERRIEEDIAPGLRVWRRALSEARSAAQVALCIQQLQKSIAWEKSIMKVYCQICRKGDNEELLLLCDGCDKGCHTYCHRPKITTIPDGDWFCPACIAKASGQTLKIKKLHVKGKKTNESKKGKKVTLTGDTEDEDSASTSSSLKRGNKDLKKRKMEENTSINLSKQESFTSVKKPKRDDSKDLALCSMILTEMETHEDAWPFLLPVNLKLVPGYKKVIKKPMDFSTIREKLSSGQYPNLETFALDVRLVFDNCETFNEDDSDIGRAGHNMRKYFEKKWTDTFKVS

Row | Compound | Potency
1 | CC(C(=O)Nc1sc2c(c1C#N)CCCCC2)N1C(=O)c2ccccc2C1=O (centres undefined) | inconclusive: 70.8 µM [inhibitor, single point]
2 | O=C(NCC(c1cccnc1)N1CCN(c2ccccc2F)CC1)OCc1ccccc1 (centres undefined) | inconclusive: 89.1 µM [inhibitor, single point]
3 | CNC(=O)NC(=O)C(NC1CCCc2ccccc21)c1ccccc1 (centres undefined) | inactive
4 | CCOC(=O)N1CCC(Nc2c(NCCCN3CCN(c4ccc(OC)cc4)CC3)c(=O)c2=O)CC1 | inconclusive: 44.7 µM [inhibitor, partial curve]
5 | [N-]=[N+]=CC(=O)CC(c1ccccc1)N1C(=O)c2ccccc2C1=O (centres undefined) | active: 31.6 µM
6 | CCC1CCCCN1S(=O)(=O)c1ccc(C(=O)N(CCCN(C)C)c2nc3cc4c(cc3s2)OCO4)cc1 (centres undefined) | inconclusive: 56.2 µM [inhibitor, partial curve]
7 | O=C1/C(=C\c2cccc([N+](=O)[O-])c2O)SC(=S)N1Cc1ccccc1 | active: 2 µM
8 | CCn1cnc2cc(NCc3ccc(C)cc3)ccc21 | inconclusive: 79.4 µM [inhibitor, single point]
9 | CN(N)c1ccc2c(C(F)(F)F)cc(C(F)(F)F)nc2n1 | inconclusive: 89.1 µM [inhibitor, single point]
10 | O=C1/C(=C/c2cccs2)SC(=S)N1C1CCS(=O)(=O)C1 (centres undefined) | active: 22.4 µM
11 | COc1ccc(C(=O)COC(=O)c2cccnc2SC)cc1 | inconclusive: 89.1 µM [inhibitor, single point]
12 | Cc1ccccc1CCNC(=O)c1ccc(NC(=O)N2CC(C)Sc3ccccc32)cc1 (centres undefined) | inactive
13 | COc1ccccc1NC(=O)c1sc2nc3c(c(C(F)(F)F)c2c1N)CN(C(C)=O)CC3 | inactive
14 | O=C(Nc1nnc(SCc2ccc(F)cc2)s1)C1CC(=O)N(c2ccc3c(c2)OCCO3)C1 (centres undefined) | inconclusive: 50.1 µM [inhibitor, partial curve]
15 | CC(=O)c1c(C)[nH]c(C(=O)OCC(=O)NCc2ccc3c(c2)OCO3)c1C | inactive
16 | Cc1ccn2c(Nc3ccccc3C)c(-c3ccc(N4CCOCC4)cc3)nc2c1 | inconclusive: 10 µM [inhibitor, full curve]
17 | COc1ccc(OC)c(NC(=S)N2CCc3ccccc3C2)c1 | inconclusive: 50.1 µM [inhibitor, partial curve]
18 | O=c1c2c3c(sc2ncn1/N=C/c1ccco1)CCCC3 | inactive
19 | C/C(=N\NC(=O)CSc1nc2ccccc2o1)c1ccc(O)cc1 | inactive
20 | O=C(CSc1ccccc1C(=O)O)c1ccc([N+](=O)[O-])cc1 | inconclusive: 89.1 µM [inhibitor, single point]
21 | CCCCC[n+]1ccn(C2=C([O-])c3ccccc3C(=O)/C2=N\S(=O)(=O)c2ccccc2)c1 | inconclusive: 89.1 µM [inhibitor, single point]
22 | CCOc1cc(N2CCOCC2)c(OCC)cc1NC(=O)c1ccccc1 | inconclusive: 70.8 µM [inhibitor, single point]
23 | CCc1ccc(OCC(=O)Nc2ccc3oc(=O)ccc3c2)cc1 | inactive
24 | Cc1cc(C)c(S(=O)(=O)NCCSCc2ccco2)c(C)c1 | inconclusive: 89.1 µM [inhibitor, single point]
25 | Cc1ccc(C)c(Nc2nnc(-c3ccc(C)c(S(=O)(=O)N4CCN(C)CC4)c3)c3ccccc23)c1 | inconclusive: 20 µM [inhibitor, full curve]

Row | Compound | Potency
26 | Cc1[nH][nH]c(=O)c1C(c1c(C)[nH][nH]c1=O)c1cn(Cc2ccc(Cl)c(Cl)c2)c2ccccc12 | active: 28.2 µM
27 | CCOc1cc(NC(=O)C2CCCCC2)c(OCC)cc1NC(=O)c1ccco1 | inconclusive: 20 µM [inhibitor, full curve, poor fit]
28 | CCc1nc2ccc(C(=O)NCc3ccc(N(C)C)cc3)cc2nc1CC | inconclusive: 56.2 µM [inhibitor, partial curve, poor fit]
29 | Cc1ccc(Nc2nc(N)nc(CN3CCCCCC3)n2)cc1 | active: 11.2 µM
30 | N#Cc1c(-c2ccccc2)cc(-c2ccco2)c(C#N)c1N | inactive
31 | Cn1nnnc1SCCCNCc1cccc(OCc2ccccc2F)c1 | inconclusive: 89.1 µM [inhibitor, single point]
32 | O=C(Cn1cc(SCc2ccc(Br)cc2)c2ccccc21)N1CCCCC1 | inactive
33 | Cc1ccc2nc(/C(C#N)=N/O)[nH]c2c1 | inconclusive: 70.8 µM [inhibitor, single point]
34 | CSc1ccc(CN2CCN(Cc3ccc([N+](=O)[O-])cc3)CC2)cc1 | active: 28.2 µM
35 | O=C1c2ccccc2C(=O)C1c1ccc(Cl)cc1 | inconclusive: 50.1 µM [inhibitor, partial curve]
36 | CCN(CC)Cc1c(-c2ccccc2)[nH]c2ccc(C)cc2c1=O | inconclusive: 3.16 µM [inhibitor, single point]
37 | CCCCn1c(SCC(=O)c2ccc3c(c2)OCCO3)nnc1-c1ccoc1C | active: 89.1 µM
38 | COc1cc(/C=C2/SC(=O)NC2=O)ccc1OC(=O)c1ccco1 | inactive
39 | CNC(=S)N/N=C/c1cn(CCOc2ccc(OC)cc2)c2ccccc12 | inconclusive: 39.8 µM [inhibitor, full curve]
40 | CC(Sc1nnc(CN2CCCC2)n1Cc1ccccc1)C(=O)Nc1ccc(F)cc1 (centres undefined) | inconclusive: 89.1 µM [inhibitor, single point]
41 | CN(c1ccc(C(=O)O)cc1)S(=O)(=O)c1ccccc1 | inactive
42 | COc1ccc(S(=O)(=O)N2CCOCC2)cc1NC(=O)Cc1ccccc1Cl | inactive
43 | Cc1cc(C(=O)N/N=C/c2ccc(O)c(O)c2O)c(C)n1-c1ccccc1 | active: 56.2 µM
44 | O=C(CSc1nccn(-c2ccc(F)c(F)c2)c1=O)NC1CCCC1 | inconclusive: 89.1 µM [inhibitor, single point]
45 | Cc1cc2c(cc1S(=O)(=O)N1CCN(c3cccc(C(F)(F)F)c3)CC1)OCC(=O)N2 | inconclusive: 89.1 µM [inhibitor, single point]
46 | O=c1c2ccccc2nc2n1C(CBr)CN2 (centres undefined) | inactive
47 | O=C1NC(=S)S/C1=C\C=C\c1ccc([N+](=O)[O-])o1 | active: 11.2 µM
48 | O=C(O)c1ccccn1 | active: 2.82 µM
49 | Clc1ccc(NC2(c3nnnn3C3CCCCC3)CCCCC2)cc1 | inactive
50 | Cc1ccccc1OCC(=O)Nc1cc(S(=O)(=O)N2CCOCC2)ccc1N1CCCC1 | inconclusive: 0.708 µM [inhibitor, full curve, poor fit]

Row | Compound | Potency
51 | Cc1ccc2c(C)ccc(O)c2n1 | inconclusive: 79.4 µM [inhibitor, single point]
52 | Cc1cc(C)c(C)c(S(=O)(=O)N2CCC(C(=O)OCC(=O)N3c4ccccc4NC(=O)C3(C)C)CC2)c1C | active: 50.1 µM
53 | O=C(/C=C/c1ccco1)N(Cc1ccc(F)cc1)C1CCS(=O)(=O)C1 (centres undefined) | inactive
54 | NC(=O)COC(=O)c1ccc(S(=O)(=O)NCc2ccco2)cc1 | inconclusive: 89.1 µM [inhibitor, single point]
55 | CN1CCN(c2ccccc2NC(=O)c2ccc(-c3cccc([N+](=O)[O-])c3)o2)CC1 | inconclusive: 50.1 µM [inhibitor, partial curve]
56 | CC(=O)Nc1ccc(Nc2nc(-c3sc(C)nc3C)cs2)cc1 | inconclusive: 70.8 µM [inhibitor, single point]
57 | COc1ccc(CN(C)CC(=O)Nc2cc3oc4ccccc4c3cc2OC)c(OC)c1 | inactive
58 | CC1CCN(c2ccc(/C=C(\C#N)c3nn(-c4ccccc4)c(N)c3C#N)cc2[N+](=O)[O-])CC1 | inactive
59 | CCN1CCc2c(sc(NC(=O)c3ccc(S(=O)(=O)N(C)C4CCCCC4)cc3)c2C(N)=O)C1 | inactive
60 | CCOC(=O)/C(C#N)=C/c1cc2cc(C)c(C)cc2nc1Cl | inconclusive: 56.2 µM [inhibitor, partial curve]
61 | CC(=O)O[C@]1(C(C)=O)CC[C@H]2[C@@H]3C=C(Cl)C4=CC(=O)[C@@H]5C[C@@H]5[C@]4(C)[C@H]3CC[C@@]21C | inactive
62 | O=C(NCC(c1cccnc1)N1CCc2ccccc2C1)C(=O)Nc1ccccc1F (centres undefined) | inconclusive: 6.31 µM [inhibitor, full curve]
63 | CSc1sc2ccccc2[n+]1CCCS(=O)(=O)[O-] | inactive
64 | O=C1Nc2ccccc2C1Cc1ccccn1 (centres undefined) | inconclusive: 89.1 µM [inhibitor, single point]
65 | CSc1nnc2c(n1)c(C)nn2-c1cccc(C)c1 | active: 28.2 µM
66 | O=C(Cc1cccc2ccccc12)NNC(=O)c1ccc(Br)o1 | inconclusive: 100 µM [inhibitor, partial curve]
67 | COc1cc(OC)cc(C(=O)Nc2ccc3nc4c(c(Nc5ccc(OC)c(OC)c5)c3c2)CCCC4)c1 | active: 10 µM
68 | CCCCc1ccc(Nc2cc(C)nc(-n3nc(C)cc3C)n2)cc1 | inactive
69 | CNC(=S)N/N=C/c1ccc(N2CCOCC2)s1 | inconclusive: 44.7 µM [inhibitor, partial curve]
70 | COc1ccc2c(c1OC)C(=O)N(c1nc(SC)n[nH]1)C2=O | inactive
71 | Cc1nn(-c2ccccc2)c2c1C1(C(=O)Nc3ccccc31)N1C(=N2)Sc2ccccc21 (centres undefined) | inconclusive: 39.8 µM [inhibitor, partial curve]
72 | COc1ccccc1NC(=O)c1nn(C)c2c1CS(=O)(=O)c1ccccc1-2 | inactive
73 | CN(C)CCCN(C(=O)c1ccc(C(=O)c2ccccc2)cc1)c1nc2cc3c(cc2s1)OCO3 | active: 44.7 µM
74 | COc1ccc(S(=O)(=O)/N=C2/NC(=O)/C(=C/c3ccco3)S2)cc1 | inconclusive: 79.4 µM [inhibitor, single point]
